Assay results from patent EP4702986A1, “POLYPEPTIDE AND USE THEREOF” (Biocells (Beijing) Biotech Co., Ltd., priority 2023, dated 2024).
For at least one compound, name, drawing or mass did not settle the structure. Numbered stars: 1 amine (or outer) side, 2 acyl side, 3 side chain; on linkers, the order of the positions; unused ones are H or OH. Bridge positions count the residues as written; N and C are the ends. Square brackets hold non-standard residues; d marks the D form. Side chains are listed from the residue outwards. Peptide text beside a SMILES is read from it. * marks the point of attachment. C18 diacid = O=C(O)CCCCCCCCCCCCCCCCC(=O)*; γGlu = O=C(O)[C@H](CCC(=O)[*:2])N[*:1]; Cit = NC(=O)NCCC[C@H](N)C(=O)O; Agb = N=C(N)NCC[C@H](N)C(=O)O; Fumaroyl = O=C(O)/C=C/C(=O)*; Suc = O=C(CCC(=O)[*:2])[*:1]; Lauroyl = CCCCCCCCCCCC(=O)*; Orn = NCCC[C@H](N)C(=O)O; AEEA = NCCOCCOCC(=O)O

Target: T1, human ETB receptor (Homo sapiens, UniProt P24530)
T1 construct: expressed in transfected cells; host or cells: 293T-17 cells, transient transfection
T1 sequence (P24530 27-442): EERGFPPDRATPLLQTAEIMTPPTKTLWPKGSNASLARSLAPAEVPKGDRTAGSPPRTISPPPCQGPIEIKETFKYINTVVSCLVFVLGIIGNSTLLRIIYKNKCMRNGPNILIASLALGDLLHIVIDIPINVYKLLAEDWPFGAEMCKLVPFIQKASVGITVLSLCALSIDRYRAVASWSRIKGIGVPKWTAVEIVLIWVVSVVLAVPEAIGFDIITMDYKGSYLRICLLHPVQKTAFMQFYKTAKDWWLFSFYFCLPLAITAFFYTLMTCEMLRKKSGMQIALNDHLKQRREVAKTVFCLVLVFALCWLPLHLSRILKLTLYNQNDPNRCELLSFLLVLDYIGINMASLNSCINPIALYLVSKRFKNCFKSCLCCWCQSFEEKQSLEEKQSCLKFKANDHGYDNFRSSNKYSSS
Assay: Determination of EC50 of polypeptides against human ETB receptor (IP-One Gq kit)
Assay type: cell-based
Details: 293T-17 cells transfected with PCDNA3.1-hETB; read-out: hETBR agonist activity EC50/nM
Experimental: 293T-17 cells were seeded at a density of 650,000 cells per well in a 6-well plate and cultured overnight in an incubator at 37°C and 5% CO2. Afterward, the cells were transfected with an expression vector, PCDNA3.1-hETB which contained a human ETB receptor gene, at a plasmid concentration of 2.5 µg per well. The cells were further cultured for 48 hours, and green fluorescence expression was observed under a fluorescence microscope. The cells were then digested with trypsin and counted. The activity of compounds on the human ETB receptor was determined with the IP-One Gq kit from Cisbio Bioassays. The cells were suspended in Stim Buffer provided in the kit and the cell suspension was added to a 96-well detection plate at 7 µL cell suspension (containing 30,000 cells) per well. The polypeptides to be tested (prepared according to the Preparation Example of the invention) were diluted in Stim B to obtain a gradient of 11 concentration points. For each concentration point, the polypeptides to be tested were dissolved in Stim B to be at a concentration of 2×, and added at 7 µL to the test cells, while 7 µL of PBS solution was added to the cells in the negative control wells. The plate was sealed and incubated at 37°C for 1 hour in a cell culture incubator. Detection wells, positive control wells containing human endothelin ET1 (ET1: […] (C1-C15,C3-C11)), and PBS control wells were each added with 3 µL of IP1 d2 working solution and 3 µL of IP1 Tb cryptotate Antibody working solution. The plate was then sealed and incubated in the dark at room temperature (25°C±5°C) for 1 hour. The plate seal was removed, and the […] at 665 nm and 620 nm was measured with an ID5 microplate reader. The ratio of the acceptor emission signal to the donor emission signal, i.e., (signal at 665 nm/signal at 620 nm)×10^4, was calculated for each well. With F representing the average value of values of signal at 665 nm/signal at 620 nm for the test samples at various concentrations, a scatterplot was plotted, where the abscissa represented the F value, and the ordinate represented the logarithmic value of the peptide concentration. A curve was fitted with an appropriate method to calculate EC50 values of the polypeptides against the human ETB receptor. Another method was provided for fitting a curve where activation rate of the test polypeptides at each concentration relative to the positive control sample human endothelin ET1 was calculated first with the method in Example 1, and a scatterplot was plotted, where the abscissa represented the activation rate, and the ordinate represented the logarithmic value of the polypeptide concentration. A curve was fitted with an appropriate method to calculate the EC50 values of the polypeptides against the human ETB receptor.

Row | Structure (SMILES) | EC50
1 | CC[C@H](C)[C@H](NC(=O)[C@H](CC(=O)O)NC(=O)[C@H](CCCCN)NC(=O)[C@H](Cc1c[nH]cn1)NC(=O)[C@H](C)NC(=O)[C@H](Cc1ccccc1)NC(=O)[C@H](Cc1ccc(O)cc1)NC(=O)[C@@H](NC(=O)[C@H](C)NC(=O)[C@H](CCC(=O)O)NC(=O)[C@H](CCC(=O)O)NC(=O)[C@H](CC(=O)O)NC(=O)CCC(=O)O)C(C)C)C(=O)N[C@H](C(=O)N[C@@H](Cc1c[nH]c2ccccc12)C(=O)O)[C@@H](C)CC [BX-5] (Suc-DEEAVYFAHKDIIW-OH) | 25.2 nM
2 | CC[C@H](C)[C@H](NC(=O)[C@H](CC(=O)O)NC(=O)[C@H](CCCNC(=N)N)NC(=O)[C@H](Cc1c[nH]cn1)NC(=O)[C@H](C)NC(=O)[C@H](Cc1ccccc1)NC(=O)[C@H](Cc1ccc(O)cc1)NC(=O)[C@@H](NC(=O)[C@H](C)NC(=O)[C@H](CCC(=O)O)NC(=O)[C@H](CCC(=O)O)NC(=O)[C@H](CC(=O)O)NC(=O)CCC(=O)O)C(C)C)C(=O)N[C@H](C(=O)N[C@@H](Cc1c[nH]c2ccccc12)C(=O)O)[C@@H](C)CC [BX-6] (Suc-DEEAVYFAHRDIIW-OH) | 25.1 nM
3 | CC[C@H](C)[C@H](NC(=O)[C@H](CC(=O)O)NC(=O)[C@H](CCNC(=N)N)NC(=O)[C@H](Cc1c[nH]cn1)NC(=O)[C@H](C)NC(=O)[C@H](Cc1ccccc1)NC(=O)[C@H](Cc1ccc(O)cc1)NC(=O)[C@@H](NC(=O)[C@H](C)NC(=O)[C@H](CCC(=O)O)NC(=O)[C@H](CCC(=O)O)NC(=O)[C@H](CC(=O)O)NC(=O)CCC(=O)O)C(C)C)C(=O)N[C@H](C(=O)N[C@@H](Cc1c[nH]c2ccccc12)C(=O)O)[C@@H](C)CC [BX-9] (Suc-DEEAVYFAH[Agb]DIIW-OH) | 23.2 nM
4 | CC[C@H](C)[C@H](NC(=O)[C@H](CC(=O)O)NC(=O)[C@H](CCCCN)NC(=O)[C@H](Cc1c[nH]cn1)NC(=O)[C@H](C)NC(=O)[C@H](Cc1ccccc1)NC(=O)[C@H](Cc1ccc(O)cc1)NC(=O)[C@H](CC(C)C)NC(=O)[C@H](C)NC(=O)[C@H](CCC(=O)O)NC(=O)[C@H](CCC(=O)O)NC(=O)[C@H](CC(=O)O)NC(=O)/C=C/C(=O)O)C(=O)N[C@H](C(=O)N[C@@H](Cc1c[nH]c2ccccc12)C(=O)O)[C@@H](C)CC [BX-21] (Fumaroyl-DEEALYFAHKDIIW-OH) | 12 nM
5 | CC[C@H](C)[C@H](NC(=O)[C@H](CC(=O)O)NC(=O)[C@H](CCCN)NC(=O)[C@H](Cc1c[nH]cn1)NC(=O)[C@H](C)NC(=O)[C@H](Cc1ccccc1)NC(=O)[C@H](Cc1ccc(O)cc1)NC(=O)[C@@H](NC(=O)[C@H](C)NC(=O)[C@H](CCC(=O)O)NC(=O)[C@H](CCC(=O)O)NC(=O)[C@H](CC(=O)O)NC(=O)/C=C/C(=O)O)C(C)C)C(=O)N[C@H](C(=O)N[C@@H](Cc1c[nH]c2ccccc12)C(=O)O)[C@@H](C)CC [BX-31, Fum-DEEAVYFAHOrnDIIW] (Fumaroyl-DEEAVYFAH[Orn]DIIW-OH) | 56.7 nM
6 | CC[C@H](C)[C@H](NC(=O)[C@H](CC(=O)O)NC(=O)[C@H](CCCNC(N)=O)NC(=O)[C@H](Cc1c[nH]cn1)NC(=O)[C@H](C)NC(=O)[C@H](Cc1ccccc1)NC(=O)[C@H](Cc1ccc(O)cc1)NC(=O)[C@@H](NC(=O)[C@H](C)NC(=O)[C@H](CCC(=O)O)NC(=O)[C@H](CCC(=O)O)NC(=O)[C@H](CC(=O)O)NC(=O)/C=C/C(=O)O)C(C)C)C(=O)N[C@H](C(=O)N[C@@H](Cc1c[nH]c2ccccc12)C(=O)O)[C@@H](C)CC [BX-32] (Fumaroyl-DEEAVYFAH[Cit]DIIW-OH) | 118 nM
7 | CC[C@H](C)[C@H](NC(=O)[C@H](CC(=O)O)NC(=O)[C@@H]1CCCCNC(=O)CC[C@H](NC(=O)[C@H](CCC(=O)O)NC(=O)[C@H](CCC(=O)O)NC(=O)[C@H](CC(=O)O)NC(=O)CCC(=O)O)C(=O)N[C@@H](C(C)C)C(=O)N[C@@H](Cc2ccc(O)cc2)C(=O)N[C@@H](Cc2ccccc2)C(=O)N[C@@H](C)C(=O)N[C@@H](Cc2c[nH]cn2)C(=O)N1)C(=O)N[C@H](C(=O)N[C@@H](Cc1c[nH]c2ccccc12)C(=O)O)[C@@H](C)CC [BX-50, Suc-DEE cyclo(EVYFAHK)DIIW] (Suc-DEEEVYFAHKDIIW-OH; lactam 4-10) | 30.5 nM
8 | CCCCCCCCCCCC(=O)N[C@@H](CCC(=O)O)C(=O)NCCOCCOCC(=O)NCCCC[C@H](NC(=O)[C@H](Cc1c[nH]cn1)NC(=O)[C@H](C)NC(=O)[C@H](Cc1ccccc1)NC(=O)[C@H](Cc1ccc(O)cc1)NC(=O)[C@@H](NC(=O)[C@H](C)NC(=O)[C@H](CCC(=O)O)NC(=O)[C@H](CCC(=O)O)NC(=O)[C@H](CC(=O)O)NC(=O)/C=C/C(=O)O)C(C)C)C(=O)N[C@@H](CC(=O)O)C(=O)N[C@H](C(=O)N[C@H](C(=O)N[C@@H](Cc1c[nH]c2ccccc12)C(=O)O)[C@@H](C)CC)C(C)C [BX-238] (Fumaroyl-DEEAVYFAHK([AEEA-Glu-Lauroyl])DVIW-OH) | 5.07 nM
9 | CC[C@H](C)[C@H](NC(=O)[C@H](CC(=O)O)NC(=O)[C@H](CC(C)C)NC(=O)[C@H](Cc1c[nH]cn1)NC(=O)[C@H](C)NC(=O)[C@H](Cc1ccccc1)NC(=O)[C@H](Cc1ccc(O)cc1)NC(=O)[C@@H](NC(=O)[C@H](C)NC(=O)[C@H](CCC(=O)O)NC(=O)[C@H](CCC(=O)O)NC(=O)[C@H](CCCCNC(=O)COCCOCCNC(=O)COCCOCCNC(=O)CC[C@H](NC(=O)CCCCCCCCCCCCCCCCC(=O)O)C(=O)O)NC(=O)/C=C/C(=O)O)C(C)C)C(=O)N[C@H](C(=O)N[C@@H](Cc1c[nH]c2ccccc12)C(=O)O)[C@@H](C)CC [BX-253] (Fumaroyl-K([AEEA-AEEA-γGlu-C18 diacid])EEAVYFAHLDIIW-OH) | 311 nM
10 | CC[C@H](C)[C@H](NC(=O)[C@H](CC(=O)O)NC(=O)[C@H](CC(C)C)NC(=O)[C@H](Cc1c[nH]cn1)NC(=O)[C@H](C)NC(=O)[C@H](Cc1ccccc1)NC(=O)[C@H](Cc1ccc(O)cc1)NC(=O)[C@@H](NC(=O)[C@H](C)NC(=O)[C@H](CCC(=O)O)NC(=O)[C@H](CCCCNC(=O)COCCOCCNC(=O)COCCOCCNC(=O)CC[C@H](NC(=O)CCCCCCCCCCCCCCCCC(=O)O)C(=O)O)NC(=O)[C@H](CC(=O)O)NC(=O)/C=C/C(=O)O)C(C)C)C(=O)N[C@H](C(=O)N[C@@H](Cc1c[nH]c2ccccc12)C(=O)O)[C@@H](C)CC [BX-254] (Fumaroyl-DK([AEEA-AEEA-γGlu-C18 diacid])EAVYFAHLDIIW-OH) | 40 nM
